According to PubChem BioAssay (NCATS):
This list was built around the results that the source calls inconclusive (neither active nor inactive); the mix of calls is not that of the screen. For some assays here: Potencies of inconclusive entries are doubtful fits and often do not repeat. For some assays here: A note “side channel” means that the fit belongs to a control or component signal, not to the main read-out. Active and inactive are the calls of the source. Unless noted, calls follow the shape of the dose curve; as a rule, active = well fitted curve in the direction sought with a large enough effect; inconclusive = small, poorly fitted or top-dose-only effect, or another doubt; inactive = no such curve, though single readings can be large; an effect the other way counts as inactive or inconclusive.

Columns and labels:
[1] = Cell Viability - LYMP2-018 (AID 985); settings: LYMP2-018 lymphoblastoid cells, viability (qHTS); activity change, negative = cytotoxicity: at 92.2 µM (top of the series);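 also: potency is read from the fitted curve at half-maximal effect; compound exposure lasted 24 hr at 37 °C; nearly all actives have a fitted effect of over 50% in size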
In short: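 Human lymphoblastoid cells (2500/well) were pre-incubated 5 hr at 37 C, then exposed to compounds for 24 hr at 37 C in complete medium. Viability was read as intracellular ATP by CellTiter-Glo luminescence; AC50 values came from Hill-equation fits.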

[2] = Cell Viability - LYMP2-022 (AID 987); settings: LYMP2-022 lymphoblastoid cell viability; viability change, negative = cytotoxic: at 92.2 µM (top of the series); also: potency is read from the fitted curve at half-maximal effect; nearly all actives have a fitted effect of over 55% in size
In short: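 Human lymphoblastoid cells, 2500/well, preincubated 5 hr at 37 C, then exposed to compounds over a concentration range for 24 hr at 37 C in complete medium. Viability read as intracellular ATP by CellTiter-Glo luminescence after 30 min at room temperature; AC50 from Hill fits.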

[3] = Cell Viability - LYMP2-024 (AID 988); also: potency is read from the fitted curve at half-maximal effect; nearly all actives have a fitted effect of over 60% in size
In short: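 Human lymphoblastoid cells (2500/well) in complete medium were preincubated 5 hr at 37 C, then exposed to compounds for 24 hr at 37 C. Intracellular ATP was read by CellTiter-Glo luminescence; AC50 from Hill-equation fits of concentration-response data.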

[4] = Cell Viability - LYMP2-026 (AID 989); settings: LYMP2-026 lymphoblastoid cell viability, qHTS; activity change, negative = cytotoxic: at 92.2 µM (top of the series); also: % is scaled to controls: 0 for no effect and ±100 for the full control effect; nearly all actives have a fitted effect of over 50% in size
In short: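 Human lymphoblastoid cells (2500/well) in complete medium were preincubated 5 hr at 37 C, then exposed to compounds for 24 hr at 37 C. Cellular ATP was read by CellTiter-Glo luminescence; AC50 from Hill-equation fits of concentration-response data.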

[5] = qHTS Assay for Identification of Small Molecule Inducers of Hypoxia Response (AID 2120; active = well fitted curve in the direction sought with a large enough effect in the signal ratio, with a control signal flat, not every such curve was filed as active; inconclusive = small, poorly fitted or top-dose-only effect, or a change in a side signal; inactive = no such curve, though single readings can be large or run the other way; the % refers to the signal ratio; also: potency is read from the fitted curve at half-maximal effect); settings: hypoxia response reporter cells, beta-lactamase ratio readout; activation: at 104 µM (top of the series)
In short: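 HRE-beta-lactamase reporter in CellSensor HRE-bla ME-180 cells, 2500 cells/well in Opti-MEM with 0.5% dialyzed FBS; compounds tested as titration series, 17 h at 37 degrees C. CCF4 substrate 2.5 h at room temperature; AC50 from 460/530 nm ratio.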

[6] = target: Androgen receptor (Homo sapiens) (UniProt P10275); experiment: qHTS assay for small molecule agonists of androgen receptor signaling (AID 588515; active = well fitted curve in the direction sought with a large enough effect in the signal ratio, with a control signal flat; inconclusive = small, poorly fitted or top-dose-only effect, or effect the other way, or a change in a side signal; inactive = no such curve, though single readings can be large or run the other way; the % refers to the signal ratio; also: % is scaled to controls: 0 for no effect and ±100 for the full control effect); settings: AR-UAS-bla HEK293, beta-lactamase ratio, agonist 16 h; activation: hits give high values
In short: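 EC50 and efficacy came from Hill fits of titrations (up to 92 uM) normalized to 30 nM R1881 as 100% and DMSO as 0%. Compound exposure was 16 h at 37 C on AR-UAS-bla HEK293 cells, with a 405/460/530 nm CCF4 fluorescence read.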

[7] = target: Bile acid receptor (Homo sapiens) (UniProt Q96RI1); experiment: qHTS assay for small molecule antagonists of farnesoid X receptor signaling (AID 588526; calls by dose curve; also: potency is read from the fitted curve at half-maximal effect); settings: HEK293T FXR-UAS-bla, beta-lactamase ratio, antagonist mode; activity change, negative = inhibition: at 76.7 µM (top of the series)
In short: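 Concentration-response titrations were fitted to the Hill equation for half-maximal inhibition and maximal response, with data normalised to 50 uM chenodeoxycholic acid and DMSO control wells. Cells: FXR-UAS-bla HEK293T, dialyzed FBS.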

[8] = target: Peroxisome proliferator-activated receptor delta (Homo sapiens) (UniProt Q03181); experiment: qHTS assay for small molecule antagonists of peroxisome proliferator-activated receptor delta signaling (AID 588535; active = well fitted inhibition curve with a large enough effect in the signal ratio, with a control signal flat, not every such curve was filed as active; inconclusive = small, poorly fitted or top-dose-only effect, or effect the other way, or a change in a side signal; inactive = no such curve, though single readings can be large or run the other way; the % refers to the signal ratio); settings: HEK293T PPARd-UAS-bla, beta-lactamase FRET ratio, 18 h; activity change, negative = inhibition: at 76.7 µM (top of the series)
In short: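 GeneBLAzer PPAR-delta-UAS-bla HEK293T cells in medium with 2% charcoal/dextran FBS were preincubated 5 hrs at 37 C, then given compounds, incubated 18 hrs at 37 C, and read by CCF4 beta-lactamase fluorescence; IC50 from Hill fits.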

[9] = target: Peroxisome proliferator-activated receptor gamma (Homo sapiens) (UniProt P37231); experiment: qHTS assay for small molecule agonists of peroxisome proliferator-activated receptor gamma signaling (AID 588536; active = well fitted curve in the direction sought with a large enough effect in the signal ratio, with a control signal flat, not every such curve was filed as active; inconclusive = small, poorly fitted or top-dose-only effect, or effect the other way, or a change in a side signal; inactive = no such curve, though single readings can be large or run the other way; the % refers to the signal ratio; also: potency is read from the fitted curve at half-maximal effect); settings: HEK293 PPARg-UAS-bla, beta-lactamase ratio, 16 h; activation: at 76.7 µM (top of the series), percent of rosiglitazone response, DMSO as zero
In short: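 PPAR-gamma-UAS-bla HEK293 cells in medium with 1% charcoal/dextran-treated FBS were exposed to compounds for 16 h at 37 C. Beta-lactamase activity was read with CCF4 substrate (405 nm excitation, 460/530 nm emission).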

[10] = target: Peroxisome proliferator-activated receptor gamma (Homo sapiens) (UniProt P37231); experiment: qHTS assay for small molecule antagonists of peroxisome proliferator-activated receptor gamma signaling (AID 588537; active = well fitted inhibition curve with a large enough effect in the signal ratio, with a control signal flat, not every such curve was filed as active; inconclusive = small, poorly fitted or top-dose-only effect, or effect the other way, or a change in a side signal; the % refers to the signal ratio;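 also: reporter cells co-stimulated with 50 nM rosiglitazone agonist during compound treatment; potency is read from the fitted curve at half-maximal effect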); settings: HEK293 PPARg-UAS-bla, beta-lactamase ratio, antagonist mode; activity, negative = inhibition: at 76.8 µM (top of the series)
In short: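 PPAR-gamma-UAS-bla HEK293 cells (3000/well, 1% charcoal/dextran-stripped FBS) were preincubated 6-6.5 h at 37 C, given titrated compounds, then stimulated with 50 nM rosiglitazone for 16 h. Beta-lactamase activity was read with CCF4 dye; IC50 came from Hill fits.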

[11] = target: Retinoic acid receptor RXR-alpha (Homo sapiens) (UniProt P19793); experiment: qHTS assay for small molecule agonists of retinoid X receptor alpha signaling (AID 588544; calls by dose curve; also: potency is read from the fitted curve at half-maximal effect); settings: HEK293T RXRa-UAS-bla, beta-lactamase reporter, 18 h; activation: at 76.7 µM (top of the series)
[12] = target: Retinoic acid receptor RXR-alpha (Homo sapiens) (UniProt P19793); experiment: qHTS assay for small molecule antagonists of retinoid X receptor alpha signaling (AID 588546; active = well fitted inhibition curve with a large enough effect in the signal ratio, with a control signal flat, not every such curve was filed as active; inconclusive = small, poorly fitted or top-dose-only effect, or effect the other way, or a change in a side signal; inactive = no such curve, though single readings can be large or run the other way; the % refers to the signal ratio;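 also: cells stimulated with 9-cis-retinoic acid as agonist; % is scaled to controls: 0 for no effect and ±100 for the full control effect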); settings: HEK293T RXRa-UAS-bla, beta-lactamase ratio, antagonist mode
In short: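 Beta-lactamase reporter inhibition, read as CCF4 fluorescence ratio (ex 405, em 460/530 nm) after 2 h at RT. HEK293T UAS-bla cells, 2500/well, were stimulated with 9-cis-RA at 500 or 100 nM final alongside test compound for 18 h at 37 C.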

[13] = qHTS assay for small molecule disruptors of the mitochondrial membrane potential - 1 hr assay (AID 651754; calls by dose curve; also: potency is read from the fitted curve at half-maximal effect; nearly all actives have a fitted effect of over 35% in size); settings: ratio change, negative = depolarisation: at 92.2 µM (top of the series)
In short: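 HepG2 cells, attached overnight at 37C, were exposed to compound or DMSO vehicle for 1 hr at 37C, 5% CO2, then stained with Mito-MPS dye for 30 min. Red aggregate versus green monomer fluorescence reports membrane potential.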

[14] = qHTS assay for small molecule disruptors of the mitochondrial membrane potential - 5 hr assay (AID 651755; calls by dose curve; also: potency is read from the fitted curve at half-maximal effect; nearly all actives have a fitted effect of over 40% in size); settings: JC-1-type ratio dye; ratio change, negative = disruption: at 92.2 µM (top of the series)
In short: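 HepG2 cells, attached overnight at 37C, were exposed to compound or DMSO for 5 hr at 37C, 5% CO2. Mito-MPS dye was then added for 30 min, and fluorescence read at 490/535 nm (monomers) and 540/590 nm (aggregates).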

[15] = qHTS assay to identify small molecules that stimulate interleukin-8 (IL-8) secretion (AID 651758; active = well fitted activation curve with a large enough effect in the signal ratio; inconclusive = small, poorly fitted or top-dose-only effect, or effect the other way, or a change in a side signal; the % refers to the signal ratio; also: 0% is about no effect); settings: HTRF ratio (665/615); activation: at 92.2 µM (top of the series)
In short: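 THP-1, 2000 cells/well; cpd 16 h, 37 C; add cryptate + XL665 anti-IL-8 Abs; RT 1-3 h; TR-FRET read.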

[16] = target: Nuclear receptor ROR-gamma (Homo sapiens) (UniProt P51449); experiment: qHTS assay for small molecule antagonists of the retinoid-related orphan receptor gamma (ROR-gamma) signaling pathway (AID 651802); also: potency is read from the fitted curve at half-maximal effect; nearly all actives have a fitted effect of over 60% in size
In short: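 CHO cells carrying TET-inducible ROR-gamma and an ROR response element–luciferase reporter were exposed to compound, then induced with doxycycline. After 16hr at 37C, luminescence was read; lower signal indicates antagonism.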

[17] = qHTS assay for small molecule agonists of the antioxidant response element (ARE) signaling pathway measured by Nrf2-dependant transcriptional activity (AID 720636; active = well fitted curve in the direction sought with a large enough effect in the repeat runs; inconclusive = weak or mixed curves; inactive = no such curve, though single readings can be large; an effect the other way counts as inactive or inconclusive; also: potency is read from the fitted curve at half-maximal effect)
In short: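 ONE-Glo luminescence, read 30 min after reagent addition at room temperature, reflected ARE reporter activity in HepG2 cells that had been incubated with compound for 16 hr at 37 C in 1% dialyzed FBS.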
Tags tell the direction and shape of the fitted curve or compound fluorescence and quenching.

Chain of UniProt P19793 (P19793 whole entry, looked up): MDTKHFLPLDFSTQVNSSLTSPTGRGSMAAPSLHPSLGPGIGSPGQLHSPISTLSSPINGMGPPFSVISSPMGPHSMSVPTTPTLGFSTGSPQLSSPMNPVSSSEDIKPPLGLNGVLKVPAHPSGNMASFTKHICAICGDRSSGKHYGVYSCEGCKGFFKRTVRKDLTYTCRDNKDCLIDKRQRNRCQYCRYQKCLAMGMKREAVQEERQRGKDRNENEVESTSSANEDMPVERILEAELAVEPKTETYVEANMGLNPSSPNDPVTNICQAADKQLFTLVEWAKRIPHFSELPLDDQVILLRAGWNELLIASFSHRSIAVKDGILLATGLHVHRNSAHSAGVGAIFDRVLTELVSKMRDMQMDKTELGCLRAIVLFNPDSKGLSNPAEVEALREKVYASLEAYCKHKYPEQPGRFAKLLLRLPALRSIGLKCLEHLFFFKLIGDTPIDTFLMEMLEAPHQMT
Chain of UniProt Q03181 (Q03181 whole entry, looked up): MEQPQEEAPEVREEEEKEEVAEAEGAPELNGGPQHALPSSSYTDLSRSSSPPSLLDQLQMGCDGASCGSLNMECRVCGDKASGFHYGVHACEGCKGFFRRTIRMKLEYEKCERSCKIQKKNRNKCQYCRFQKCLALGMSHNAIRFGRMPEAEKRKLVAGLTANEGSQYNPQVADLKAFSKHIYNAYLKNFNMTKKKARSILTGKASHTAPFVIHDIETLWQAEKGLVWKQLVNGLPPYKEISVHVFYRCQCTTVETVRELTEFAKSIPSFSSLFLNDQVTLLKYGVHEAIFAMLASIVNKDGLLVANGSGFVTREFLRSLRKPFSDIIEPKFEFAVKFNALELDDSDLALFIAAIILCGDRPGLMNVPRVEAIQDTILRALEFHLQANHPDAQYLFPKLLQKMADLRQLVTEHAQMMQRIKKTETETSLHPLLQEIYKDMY
Chain of UniProt P51449 (P51449 whole entry, looked up): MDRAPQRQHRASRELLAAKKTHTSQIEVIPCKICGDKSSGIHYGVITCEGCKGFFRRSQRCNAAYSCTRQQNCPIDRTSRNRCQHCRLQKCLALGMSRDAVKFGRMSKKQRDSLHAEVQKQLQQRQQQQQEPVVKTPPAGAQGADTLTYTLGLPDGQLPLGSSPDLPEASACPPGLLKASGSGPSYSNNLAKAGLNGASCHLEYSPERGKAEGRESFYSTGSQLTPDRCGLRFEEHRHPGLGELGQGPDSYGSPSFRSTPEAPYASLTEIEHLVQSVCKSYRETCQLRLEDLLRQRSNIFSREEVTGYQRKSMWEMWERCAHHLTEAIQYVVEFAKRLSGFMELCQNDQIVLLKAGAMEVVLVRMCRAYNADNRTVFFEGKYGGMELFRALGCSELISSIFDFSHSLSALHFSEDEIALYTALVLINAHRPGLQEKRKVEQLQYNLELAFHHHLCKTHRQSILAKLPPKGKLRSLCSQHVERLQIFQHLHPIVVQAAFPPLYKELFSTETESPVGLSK
Chain of UniProt P10275 (P10275 whole entry, looked up): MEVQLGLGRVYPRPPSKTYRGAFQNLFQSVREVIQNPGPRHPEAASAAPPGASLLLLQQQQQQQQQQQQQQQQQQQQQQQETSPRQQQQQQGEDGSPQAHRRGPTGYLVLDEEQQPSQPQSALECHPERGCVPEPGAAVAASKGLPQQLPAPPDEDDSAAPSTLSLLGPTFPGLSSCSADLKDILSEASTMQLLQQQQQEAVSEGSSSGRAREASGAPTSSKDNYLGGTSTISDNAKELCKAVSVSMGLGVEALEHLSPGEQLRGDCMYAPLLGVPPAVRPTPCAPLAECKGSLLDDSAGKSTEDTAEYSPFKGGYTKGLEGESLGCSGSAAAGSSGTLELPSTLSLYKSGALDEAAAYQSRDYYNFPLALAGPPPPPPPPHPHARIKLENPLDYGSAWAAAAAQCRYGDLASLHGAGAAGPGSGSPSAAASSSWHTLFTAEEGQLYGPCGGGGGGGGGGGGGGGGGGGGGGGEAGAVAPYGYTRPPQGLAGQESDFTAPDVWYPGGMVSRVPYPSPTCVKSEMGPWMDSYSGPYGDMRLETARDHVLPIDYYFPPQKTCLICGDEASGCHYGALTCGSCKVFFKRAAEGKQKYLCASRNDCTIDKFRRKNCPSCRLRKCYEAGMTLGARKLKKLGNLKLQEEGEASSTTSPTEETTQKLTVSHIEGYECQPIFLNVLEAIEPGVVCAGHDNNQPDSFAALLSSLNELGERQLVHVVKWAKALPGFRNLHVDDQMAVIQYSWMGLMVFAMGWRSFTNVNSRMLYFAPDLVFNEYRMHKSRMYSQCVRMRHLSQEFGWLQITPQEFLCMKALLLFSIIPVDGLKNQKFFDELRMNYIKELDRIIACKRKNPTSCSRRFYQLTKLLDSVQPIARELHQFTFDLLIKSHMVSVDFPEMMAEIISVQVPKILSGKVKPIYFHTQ

SMILES: COP(=O)(OC)O/C(=C\Cl)c1cc(Cl)c(Cl)cc1Cl
- Potency [1]: inconclusive: 50.1 µM [cytotoxic, partial curve]
- Potency [2]: inconclusive: 39.8 µM [cytotoxic, partial curve]
- Potency [3]: inconclusive: 50.1 µM [cytotoxic, partial curve, poor fit]
- activity change, negative = cytotoxic [4]: inconclusive: -32.1% [cytotoxic]
- Potency [5]: inconclusive: 50.1 µM [side channel, falling, partial curve]
- activation [6]: inactive: -13%
- Potency [7]: inconclusive: 44.7 µM [inhibitor, partial curve, poor fit]
- activity change, negative = inhibition [8]: inconclusive: -63.9%
- Potency [9]: inconclusive: 7.08 µM [inhibitor, full curve]
- Potency [10]: inconclusive: 28.2 µM [side channel, rising, full curve, poor fit]
- Potency [11]: inconclusive: 39.8 µM [side channel, rising, single point]
- max response [12]: inconclusive: -36.5%
- Potency [13]: inconclusive: 1.12 µM [side channel, rising, full curve]
- Potency [14]: inconclusive: 1.78 µM [side channel, rising, full curve]
- Potency [15]: inactive
- Potency [16]: inconclusive: 59.6 µM [inhibitor, single point]
- Potency [17]: inconclusive: 66.8 µM [activator, single point]
